Data reported in patent US20240307550A1, “MODULATION OF CD46 CELL SURFACE MARKER IN BOTH ANDROGEN RECEPTOR-POSITIVE AND NEGATIVE CANCER CELLS” (The Regents of the University of California, priority 2021, published 2024).

Legend:
[1] = tested on: LnCap-C4-2B, LnCap-C4, DU145, PC3-luc, and Hs27 prostate cancer cells; assay: Binding to the surface of prostate cancer cells
non-tumor BPH1 cells = assay: Binding to the surface of non-tumor cells
[2] = tested on: RPMI8226, MM.1S, MM.1R, and INA6 multiple myeloma cells; assay: Binding to the surface of multiple myeloma cells

B1: YS5FL: human anti-CD46 antibody; VH SEQ ID NO: 1/86, VL SEQ ID NO: 22/87; HC 88, LC 89 (antibody)
heavy: QVQLVQSGGGVVQPGRSLRLACAASGLTVNNYAMHWVRQAPGKGLEWVAVISYDGNNKYYADSVKGRFTISRDNSKNTLYLQMNSLRAEDTAVYYCAKGGGYFDLWGRGTLVTVSS[human IgG1 constant region left out]
light: QSVLTQPPSVSGAPGQRVTISCTGSSSNIGAGYDVHWYQQLPGTAPKLLIYGNNNRPSGVPDRFSGSKSGTSASLAITGLQAEDEADYYCSSYTSGTWLFGGGTKLTVLGQPKAAPSVTLFPPSSEELQANKATLVCLISDFYPGAVTVAWKADSSPVKAGVETTTPSKQSNNKYAASSYLSLTPEQWKSHRSYSCQVTHEGSTVEKTVAPTECS
notes: human anti-CD46 antibody; HC 88, LC 89
**Q.** What does the source list for B1?
**A.** binding to cell surface [1]: bind specifically; binding to cell surface (non-tumor BPH1 cells): not to non-tumor BPH1 cells; binding to cell surface [2]: binds specifically
